Experimental data published in PubChem BioAssay AID686978 (National Center for Advancing Translational Sciences (NCATS), 2013).
In all, about 420,000 compounds went through this assay and about 64,000 (15%) were called active. The shares of active, inactive and inconclusive entries below differ from those in the screen. The call rests on the fitted dose curve; in most records, active means well fitted inhibition curve with a large enough effect; inconclusive means small, poorly fitted or top-dose-only effect; inactive means flat fitted curve, though single readings scatter. Potencies of inconclusive entries are left out as doubtful fits.

Assay: qHTS for Inhibitors of human tyrosyl-DNA phosphodiesterase 1 (TDP1): qHTS in cells in absence of CPT; further: nearly all actives have a fitted effect of over 55% in size
Conditions: DT40 Tdp1-/- hTDP1 cells, no CPT, ATP luminescence, 48 h; activity change, negative = growth inhibition: at 46.2 µM (top of the series) unless noted
Outline: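 Seeded 400 DT40-hTDP1 cells/well (vehicle DMSO, no 20 nM CPT); pinned compounds; ≥48 hr at 37 °C; CellTiter-Glo luminescence as viability measure.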
On the % scale 0 is the no-effect control and ±100 the full control effect; potency means the concentration at half of the fitted maximal effect; tags describe the fitted curve by direction and shape.

Row | SMILES | Potency | activity change, negative = growth inhibition
1 | COc1ccc(NC(=O)C(c2ccccc2)N2CCN(c3ccccn3)CC2)cc1Cl (stereo unspecified) | inconclusive [inhibitor, single point] | 
2 | N#Cc1ccccc1OCCCN1CCC(C(O)(c2ccccc2)c2ccccc2)CC1 | inconclusive [inhibitor, single point] | 
3 | O=C1Cc2ccccc2C(c2ccc(Cl)cc2)N1 (stereo unspecified) | inconclusive [inhibitor, single point] | 
4 | O=C(Nc1cccc2ncccc12)c1ccc([N+](=O)[O-])o1 | active: 16.4 µM | 
5 | CCN(CC)CC#CC(OC)(c1ccccc1)c1ccccc1 | inconclusive [inhibitor, single point] | 
6 | COc1ccc(CN(C)C(=O)C(CCSC)NS(=O)(=O)c2ccc3c(c2)OCCO3)c(OC)c1OC (stereo unspecified) | inconclusive [inhibitor, single point] | 
7 | O=[N+]([O-])c1cccc(S(=O)(=O)N2CCCCC2c2cccnc2)c1 (stereo unspecified) | inconclusive [inhibitor, single point] | 
8 | CNC(=O)C1CCN(c2nc3ccccc3nc2C(F)(F)F)CC1 | inconclusive [inhibitor, partial curve, poor fit] | 
9 | Clc1ccc(C2[C@H]3CN(CC4CCCCC4)[C@H](c4ccccc4)C34CC2(c2cccnc2)C4)cn1 (stereo partly specified) | inconclusive [inhibitor, single point] | 
10 | CSc1nnc(C)c(/C=C/Nc2ccc(C)cc2)n1 | active: 18.4 µM | 
11 | O=C(Nc1ccc(SC(F)F)cc1)c1ccc2nccnc2c1 | inconclusive [inhibitor, single point] | 
12 | O=C(c1ccc(Cl)cc1)c1oc2ccccc2c1CS(=O)(=O)c1ccccc1 | inconclusive [inhibitor, single point] | 
13 | CCc1ccc(NC(=O)N2CCN(C(=O)c3nsc4ccccc34)CC2)cc1 | inconclusive [inhibitor, single point] | 
14 | COc1cc(OC)nc(Oc2cc(/C=N/O)ccc2OC)n1 | inconclusive [inhibitor, single point] | 
15 | Cc1nc(C(=O)NCc2ccccc2)sc1C1(C)CC(c2cccnc2)=NO1 (stereo unspecified) | inconclusive [inhibitor, single point] | 
16 | C=COC(=O)c1sc2nc(C)cc(C)c2c1N |  | inactive: -19.6%
17 | CCOC(=O)/C(=N/Nc1ccccc1)Sc1nnc(CCc2ccccc2)n1-c1ccccc1 |  | inactive: 4.38%
18 | CCOC(=O)[C@H]1[C@H]2COc3ccc(OC)cc3[C@@H]2N2C(=O)c3ccccc3NC(=O)[C@@]12C |  | inactive: -12.8%
19 | O=C(NCc1ccccc1F)C1CCCN1C(=O)Nc1ccc(Cl)cc1 (stereo unspecified) |  | inactive: -5.84%
20 | CN(C)/C=C(\C#N)C(=O)Nc1ccc(F)cc1 |  | inactive: -20.4%
21 | Brc1ccccc1C1=Nn2c(nnc2-c2ccccc2)SC1 | inconclusive [inhibitor, partial curve] | 
22 | CNC(=O)c1ccc(CSc2nc3ccncc3n2Cc2ccc(C)cc2)cc1 | inconclusive [inhibitor, single point] | 
23 | O=C(C1CCN(Cc2cc(Cl)ccc2O)CC1)N1CCN(Cc2ccccc2)CC1 | active: 20.6 µM | 
24 | COc1cccc2cc(C(=O)N3CCCCCCC3)c(=O)oc12 | inconclusive [inhibitor, partial curve, poor fit] | 

Row | SMILES | Potency | activity change, negative = growth inhibition
25 | CC1(C)[N+]([O-])=C2C(=[N+]([O-])C1(C)C)c1ccccc1/C2=N\O |  | inactive: -17.8%
26 | N#CCCn1c(=O)cnc2cnc(Nc3ccccc3)nc21 | inconclusive [inhibitor, single point] | 
27 | COc1cc(Cl)c(C)cc1NC(=O)c1cnc2c(-c3cccc(C)c3)c(C)nn2c1C | inconclusive [inhibitor, single point] | 
28 | Cc1cc(OCC(=O)N[C@@H](Cc2ccccc2)c2nc3ccccc3[nH]2)ccc1Cl | inconclusive [inhibitor, single point] | 
29 | Cc1ccsc1CN1CCc2nc(N3CCN(c4ccccc4F)CC3)ncc2C1 | inconclusive [inhibitor, single point] | 
30 | COc1ccc(OCC(=O)Nc2nonc2NC(=O)COc2ccc(OC)cc2)cc1 |  | inactive: 14.1%
31 | Cc1c(C(=O)NC(=S)NCc2cccnc2)oc2ccccc12 | inconclusive [inhibitor, partial curve] | 
32 | CCOc1ccc(OCC)c(Nc2nc3ccc(Cl)cc3n3cnnc23)c1 | inconclusive [inhibitor, partial curve] | 
33 | COCC(O)CNc1ccccc1 (stereo unspecified) |  | inactive: -17.7%
34 | O=S1(=O)N[C@@H](CC2CCCCC2)COc2cc(Br)ccc21 | inconclusive [inhibitor, single point] | 
35 | O=C(Nc1cc(S(=O)(=O)N2CCOCC2)ccc1Cl)c1ccc(=O)[nH]c1 |  | inactive: -18.7%
36 | CCOC(=O)C1CCN(C(=O)c2cc3c(=O)n4cccc(C)c4nc3s2)CC1 | inconclusive [inhibitor, single point] | 
37 | CC1CCCN(C(=O)Cn2nnc(-c3ccc(F)cc3)n2)C1 (stereo unspecified) |  | inactive: -20.5%
38 | COC(=O)c1cc2ccc(OC)cc2c2cc(OC)c(OC)cc12 | inconclusive [inhibitor, single point] | 
39 | O=C(Nn1cnc2ccccc2c1=O)c1c(F)cccc1F |  | inactive: -15.5%
40 | CC(C)(C)C(=O)Cn1c(=O)n(-c2ccc(Cl)c(Cl)c2)c(=O)c2c3c(sc21)CCCC3 |  | inactive: -8.99%
41 | COc1cnc(-c2ccccn2)nc1Oc1cccc(Cl)c1 | active: 8.2 µM | 
42 | O=C(NC1CCCC1)C1CCCN(S(=O)(=O)c2ccc(F)cc2)C1 (stereo unspecified) | inconclusive [inhibitor, single point] | 
43 | CC(=O)N(CCC(Cc1ccccc1)c1ccco1)Cc1ccco1 (stereo unspecified) | inconclusive [inhibitor, single point] | 
44 | O=C(C(=O)N1CCc2ccccc2C1)c1c[nH]c2ccccc12 | inconclusive [inhibitor, single point] | 
45 | Cc1ccccc1NC(=O)c1ccc(NC(=O)C2CC(=O)OC23CCCCC3)cc1 (stereo unspecified) |  | inactive: -21.5%
46 | O=C1C=C(c2ccc(CO)cc2)C[C@@H](c2ccc(F)cc2)C1 | active: 23.1 µM | 
47 | COc1ccc(C(=O)NCCNc2nc3c(C)cccc3cc2C#N)cc1OC |  | inactive: -21.2%
48 | CCOC(=O)c1cnc2ccc(C)cc2c1Nc1ccc(N2CCOCC2)cc1 | inconclusive [inhibitor, single point] | 

Row | SMILES | Potency | activity change, negative = growth inhibition
49 | CS(=O)(=O)N1CCC(C(=O)N2CCN(c3ccccc3)CC2)CC1 |  | inactive: -8.27%
50 | BrC(=C\c1ccccc1)/C=N/N1CCN(c2ccccn2)CC1 | active: 2.59 µM | 
51 | CC1=CC(=O)C(Sc2ccc(C)cc2)=CC1=O | active: 1.64 µM | 
52 | COCc1cc(C)nc2sc(C(=O)Nc3cc(C)ccc3F)c(N)c12 | inconclusive [inhibitor, single point] | 
53 | CN(C(=O)COC(=O)COc1ccc(N(C)S(=O)(=O)c2ccc(Cl)cc2)cc1)c1ccccc1 | inconclusive [inhibitor, single point] | 
54 | COc1ccc(CCNC(=O)Cn2cc(C(=O)c3ccc(F)cc3)c(=O)c3ccc(C)nc32)cc1OC | inconclusive [inhibitor, partial curve, poor fit] | 
55 | O=C(COC(=O)c1cc2ccccc2cc1O)NC1CCCCC1 | inconclusive [inhibitor, single point] | 
56 | NC(=O)c1ccc(NC(=O)COC(=O)c2ccc(Br)o2)cc1 |  | inactive: -1.57%
57 | N#Cc1cccc(NC(=O)N2CCC3(CC2)CCN(C(=O)c2cccc(F)c2)CC3)c1 |  | inactive: -29.2%
58 | COc1cc(C)c(Br)cc1S(=O)(=O)N1CCOCC1 |  | inconclusive: -31.3% [inhibitor]
59 | C[C@H](NC(=O)C1CC(=O)N(c2ccc3c(c2)OCO3)C1)C(=O)NCc1ccco1 (stereo partly specified) |  | inactive: 5.08%
60 | O=C(NC1CCCCCCC1)NC1CCCCC1 | inconclusive [inhibitor, single point] | 
61 | CCOC(=O)N(C)c1c(CC)nc2c(OCCC3CCCCC3)cccn12 | active: 16.4 µM | 
62 | CCCCN(C(=O)c1cccc(S(=O)(=O)N(CC)c2ccccc2)c1)c1c(N)n(CC(C)C)c(=O)[nH]c1=O |  | inactive: -10.1%
63 | Cc1ccc(CNC(=O)CCCn2c(=O)c3ccccc3n(Cc3ccc(Cl)cc3)c2=O)cc1 |  | inactive: -25.9%
64 | Cc1ccc(CCN2CCN=C2Nc2ccccc2)cc1 | inconclusive [inhibitor, single point] | 
65 | CC(C)(C)NC(=O)C(c1ccc(Cl)cc1)N(CCO)C(=O)c1snc(C(N)=O)c1N (stereo unspecified) | inconclusive [inhibitor, single point] | 
66 | CN(C(=O)CSc1nnc(-c2ccc([N+](=O)[O-])cc2)o1)c1ccccc1 | inconclusive [inhibitor, partial curve] | 
67 | CC1CN(c2ccc([N+](=O)[O-])c(NCCOc3ccccc3)c2)CCN1 (stereo unspecified) | inconclusive [inhibitor, single point] | 
68 | COc1ccc([C@@H]2CC(=O)c3c(O)cc(O[C@@H]4O[C@H](CO[C@@H]5O[C@@H](C)[C@H](O)[C@@H](O)[C@H]5O)[C@@H](O)[C@H](O)[C@H]4O)cc3O2)cc1O | inactive | 
69 | O=C(NCC1CC1)c1ccc2nc([C@@H]3O[C@H](CO)[C@H](O)[C@H](O)[C@H]3O)[nH]c2c1 |  | inactive: -3.84%
70 | CCOC(=O)CN(C(=O)COc1nc(-c2ccccc2)cc(C)c1C#N)c1ccc(F)cc1 | inconclusive [inhibitor, single point] | 
71 | CCOc1ccccc1OCC(=O)Nc1cc(S(=O)(=O)N2CCCCC2)ccc1OC | inconclusive [inhibitor, single point] | 
